Test results from PubChem BioAssay AID1963576 (National Center for Advancing Translational Sciences (NCATS), 2024).
Out of some 46,000 compounds screened, about 60 (0.1%) were called active. Inconclusive results (about 3%) are left out. Calls follow the shape of the dose curve; as a rule, active = well fitted inhibition curve with a large enough effect; inconclusive = small, poorly fitted or top-dose-only effect; inactive = no such curve, though single readings can be large or run the other way. This is one part of the list. Residues, ends and D or L forms follow the SMILES beside them.

Assay: Primary qHTS assay for Inhibitors of ovarian cancer metastasis using an organotypic tumor microenvironment (TME) model. Also: nearly all actives have a fitted effect of over 65% in size.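 As to activity change, negative = inhibition: plate controls were DMSO wells for no effect and tomatine positive control wells for full effect.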
Settings: SKOV3ip1-GFP adhesion/invasion on 3D omental model, fluorescence; series mostly up to 45.8 µM; activity change, negative = inhibition: at the top concentration
How it was run: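 qHTS, 4-pt dose (0.36-46 umol/L); SKOV3ip1-GFP, 1,200 cells/well, no FBS; primary omental fibroblast/mesothelial co-culture 48 h pre-grown; 2 h RT + 16 h 37 C; PBS wash, 4% PFA; GFP count 488/509 nm.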

Activity change, negative = inhibition, inactive:
CCOC(=O)c1ccc(NC(=O)CC2C(=O)N(c3ccc(C)cc3)C(=O)N2C2CCCC2)cc1 (stereo not drawn) -7.49%, COc1ccccc1N1CCN(S(=O)(=O)CCNC(=O)C2CC(=O)N(c3ccccc3)C2)CC1 (stereo not drawn) 2.38%, COc1cc(NC(=O)c2cc3ccc4cccnc4c3[nH]2)cc(OC)c1OC 4.8%, CC(C)(C)C(=O)Nc1cccc(C(=O)OCc2cc(=O)n3nc(C4CC4)sc3n2)c1 10.2%, CC(Nc1ccc(-c2nc(-c3ccco3)no2)cc1[N+](=O)[O-])c1ccccc1 (stereo not drawn) 12.1%, Cc1ccc(NC(=O)N2CCN(Cc3nc4ccc(C)cc4o3)CC2)c(Cl)c1 4.1%, O=C1CN(C(=O)COc2ccc(Cl)cc2)C(c2ccc(F)cc2)c2cc(Br)ccc2N1 (stereo not drawn) -15.8%, CCS(=O)(=O)c1nc(S(=O)(=O)c2ccc(C)cc2)c(NCC(C)C)s1 -3.38%, CCOC(=O)N1CCc2c(sc(NCc3sccc3C)c2C(=O)Nc2cc(Cl)ccc2OC)C1 4.14%, COC(=O)CN1C(=O)CSc2ccc(S(=O)(=O)Nc3c(C)cc(C)cc3C)cc21 10.3%, CCOC(=O)c1ccc(NC(=O)CSc2nc(-c3cccs3)cc(C(F)(F)F)c2C#N)cc1 -0.519%, Cc1ccc(CNc2ncnc3c2cnn3-c2ccc(C)cc2C)cc1 -14.4%, CC(=O)Nc1ccc(NC(=O)c2c(C)nn(-c3ccccc3)c2-n2cccc2)cc1 14.8%, Cc1cc(C)c(NC(=O)Cn2nnc(C(=O)Nc3ccc(F)cc3F)c2N)c(C)c1 -8.25%, COc1ccc(-c2cc(OC(=O)c3cccc(C)c3)c3c(C)oc(C)c3c(=O)c2)cc1 3.57%, COc1ccc(-c2nnc(SCC(=O)Nc3cccc(Cl)c3C)nc2-c2ccc(OC)cc2)cc1 5.25%, COc1ccc(NC(=O)CCNS(=O)(=O)c2ccc3c(c2)CCN3C(=O)C2CC2)cc1Cl -25.4%, CCn1cc(C(=O)NCc2ccccc2OC)c(=O)c2cc(S(=O)(=O)N3CCCCCC3)ccc21 -2.5%, CCc1nn2c(=O)cc(COC(=O)C3CCCCC3)nc2s1 21.3%, CCc1ccc(NC(=O)C2CCCN(S(=O)(=O)c3cccc4nonc34)C2)cc1 (stereo not drawn) -7.08%, CCOc1ccc(NC(=O)Cn2cnc3c(oc4ccccc43)c2=O)cc1 6.84%, COc1cccc(-c2cc(C(=O)N3CCN(c4ccc(F)cc4)CC3)no2)c1 0.907%, COc1cccc(NS(=O)(=O)c2cc3c4c(c2)C(C)C(=O)N4CCC3)c1 (stereo not drawn) 18.8%, Cc1ccsc1CCN1C(=O)N(c2ccc(F)cc2)C(=O)C1CC(=O)Nc1ccccc1 (stereo not drawn) -1.86%, COc1cc(-c2noc(C3CC(=O)N(c4cc(C)ccc4C)C3)n2)cc(OC)c1OC (stereo not drawn) -0.136%, CN1C(=O)Cc2cc(S(=O)(=O)CCC(=O)N3CCN(c4cccc(Cl)c4)CC3)ccc21 9.84%, CCc1ccc(NC(=O)c2c(C(=O)Nc3ccccc3)sc3nc(C)cc(=O)n23)cc1 -29.2%, COC(=O)[C@H](Cc1ccccc1)NC(=O)[C@@H](N)CC(=O)O (HELM PEPTIDE1{D.F.[CO[*:1]]}$$$$V2.0) -8.58%, Cc1ccc2c(=O)cc(C(=O)Nc3c(C(=O)c4ccccc4)oc4ccccc34)oc2c1C 6.79%, CCC(C)NC(=O)c1ccc2c(c1)N=C(C)c1cc(C)ccc1S2 (stereo not drawn) -1.32%, Cc1cc(C)c2c(=O)cc(C(=O)Nc3ccc(S(=O)(=O)Nc4onc(C)c4C)cc3)oc2c1 -2.37%, COc1ccc2c(c1)c1c(c(=O)n(-c3cccc(C)c3)c(=O)n1CC(=O)N1CCCC1)n2C 9.04%, CC(C)(C)OC(=O)N1CCC(c2c(C(=O)NCc3ccccn3)cnn2-c2ccc(F)cc2)CC1 1.26%, COc1cccc(NC(=O)C(=O)NCCc2csc3nc(-c4ccccc4C)nn23)c1 0.329%, CCc1ccccc1N(c1nc(-c2ccc(OC)c(OC)c2)no1)c1nc(-c2ccc(OC)c(OC)c2)no1 -8.17%, COc1ccc(-n2nnc(C(=O)Nc3ccccc3F)c2N)cc1 -25%, CCOc1ccc(NCc2cccn2-c2nnc(N3CCC(C(=O)NCc4cccc(OC)c4)CC3)s2)cc1 -38.4%, CCN1C(=O)c2ccccc2Sc2ccc(NC(=O)Cc3ccc(OC)cc3)cc21 -4.65%, Cc1oc(-c2cccc(Cl)c2)nc1CSc1nnc(C)n2c1cc1occc12 7.88%, CC(=O)[C@]1(O)Cc2c(O)c3c(c(O)c2[C@@H](O[C@H]2C[C@H](N)[C@@H](O)[C@H](C)O2)C1)C(=O)c1ccccc1C3=O 4.73%, Cc1nc2c(-c3ccc(F)cc3)c(C)nn2c(C)c1CCC(=O)N1CCN(c2ccc(F)cc2)CC1 6.77%, Cc1cccc(CCNC(=O)c2ccc3c(c2)nc2n3CCCCC2)c1 0.502%, Cc1ccc(Cc2nc3ccccc3nc2SCC(=O)NCCc2ccccc2)cc1 -1.84%, CC(=O)c1cc(-c2ccccc2)n(CCC(=O)NCCc2ccccc2)c1C -2.51%, CC(=O)NCc1nc2cccnc2n1Cc1ccccc1 -4.1%, COc1ccc(Cl)cc1N(C)C(=O)Cc1noc2ccc(C)cc12 -8.79%, COc1ccccc1N1CCN(C(=O)Cn2cnc3sc(C)c(S(=O)(=O)N4CCC(C)CC4)c3c2=O)CC1 7.39%, CCc1cccc(C)c1NC(=O)Cn1c(=O)n(-c2cccc(C)c2)c(=O)c2c1c1cc(C)ccc1n2C -3.52%, O=C(CCc1ccccc1)NCc1ccc2c(c1)CCN2C(=O)c1ccc(Cl)cc1 8.87%, O=c1[nH]c2ccc(NCc3ccccc3F)cc2[nH]1 1.3%, CC1Cc2ccccc2N1C(=O)CSc1nnc(-c2cccc(Cl)c2)o1 (stereo not drawn) 2.87%, CCn1c(CNC(=O)C23CC4CC(CC(C4)C2)C3)nnc1SCC(=O)Nc1ccc(F)cc1 13.6%, O=C(NCCS(=O)(=O)N1CCN(c2cccc(Cl)c2)CC1)c1cc(=O)c2ccccc2o1 8.16%, CCOc1ccc(NC(=O)Cn2cc(C(=O)c3ccc(CC)cc3)c(=O)c3ccc(C)nc32)cc1 5.57%, N#Cc1c(N(CC(=O)O)CC(=O)O)sc(C(=O)O)c1CC(=O)O -6.35%, COc1ccc(-n2c(=O)c3c(c4cc(OC)ccc4n3C)n(C)c2=O)cc1 -5.97%, O=C(NCCC1=CCCCC1)c1ccc2c(c1)N(Cc1ccc(Cl)cc1)C(=O)c1ccccc1S2=O (stereo not drawn) 9.54%, CC1=C(c2ccc(C)c(C)c2)S(=O)(=O)N=C1N1CCC(C(=O)NCc2ccc(Cl)cc2)CC1 3.44%, COc1ccc(NC(=O)CSc2nccn2Cc2ccco2)cc1OC 1.79%, O=C(COc1ccccc1F)Nc1ccc(Cl)c(-c2nc3ccccc3[nH]2)c1 -9.98%, Cc1cc(C)c(/C=C/c2onc(C)c2S(=O)(=O)N2CCC(C(=O)Nc3ccc(Cl)c(C(F)(F)F)c3)CC2)c(C)c1 -5.21%, CCOC(=O)C1=C(C)NC(=S)NC1c1cccc(O)c1 (stereo not drawn) 4.37%, Cc1ccc(-n2c(=O)c3cccnc3n2CC(=O)NCc2ccc(F)cc2)cc1C 26.1%, Clc1ccc(-c2nc3ccccn3c2Nc2ccc3c(c2)OCCO3)s1 -25.3%, COc1cc(NC(=O)c2cc(-c3cccc(Cl)c3)on2)c(OC)cc1Cl -5.37%, CCOCCc1nnc(NC(=O)C(=O)c2cc(C)n(-c3cccc(Cl)c3)c2C)s1 -6.89%, Cc1ccc2nc(NC(=O)CSc3nccn3Cc3ccccc3)sc2c1 -13.7%, COc1ccccc1NC(=O)c1nc(SCc2ccc(F)cc2)ncc1Cl -6.18%, CCOC(=O)c1cnc2ccccc2c1Nc1ccc(N2CCOCC2)cc1 -11.2%, Cc1cccc(Cn2c(=O)n(-c3ccc(Cl)c(Cl)c3)c(=O)c3c(C)c(C)sc32)c1 1.34%, Cc1ccccc1CSc1cn(CC(=O)N2CCCC2)c2ccccc12 -3.25%, CCN(Cc1ccccc1)C(=O)Cn1c(=O)oc2cc(S(=O)(=O)N3CCCCCC3)ccc21 9.52%, Cc1ccc(C)c(N2CCN(C(c3ccc(F)cc3)c3nnc(-c4ccccc4)o3)CC2)c1 (stereo not drawn) -1.59%, COc1ccc(OC)c(NC(=O)c2sc3nc4c(cc3c2N)CCCCCC4)c1 6.62%, COc1ccc(NC(=O)c2sc3nc(C)c(C(=O)Nc4ccc(C)cc4C)c(-c4cccs4)c3c2N)cc1 -13.2%

outcome, inactive:
Cc1ccccc1NC(=O)CCNC(=O)Cn1ccc2ccccc2c1=O, Cc1ccc(CNC(=O)c2ccc3c(c2)nc2n3CCCC2)cc1, Cc1cc(C)n(-c2nc(C)c(C)c(=O)n2CC(=O)Nc2ccc(Cl)c(Cl)c2)n1, COc1cccc(NC(=O)c2nnn(Cc3ccc(OC)c(Br)c3)c2N)c1, COc1ccc(CNC(=O)C2CCN(S(=O)(=O)c3ccc4nc5c(c(C(=O)O)c4c3)CC(C)CC5)CC2)cc1 (stereo not drawn), CC(C)CC(=O)Nc1nnc2n1CCS2, COc1ccc(-c2cc(-c3ccccc3)nc3c2COc2ccccc2-3)cc1, CCCn1cc(S(=O)(=O)c2cc(C)ccc2C)c(=O)c2cc(F)c(N3CCCCCC3)cc21, COC(=O)c1c(NC(=O)c2nc(SC)ncc2Cl)sc2c1CCCC2, CCOc1ccc(CCNC(=O)c2cc3c(=O)n(C)c4ccccc4c3n2C)cc1, CCOC(=O)c1cc(NC(=O)c2ccc(OC)cc2)c(=O)n2c1oc1ccc(Cl)cc12, C=C(C)Cn1c(SCC(=O)Nc2cccc(Cl)c2)nc2sc3c(c2c1=O)CCCC3, Cc1ccc(NC(=O)CC2Sc3ccccc3NC2=O)c(Br)c1 (stereo not drawn), CCc1cccc(NC(=O)CC2Oc3ccc(C)cc3NC2=O)c1 (stereo not drawn), CCOC(=O)c1cccc(NC(=O)c2cnc(N3CCCCC3)c3ccccc23)c1, CCN(CC)S(=O)(=O)c1ccc2c(c1)N(CC(=O)Nc1c(C)cc(C)cc1C)C(=O)C1CCCN21 (stereo not drawn), Cc1ccc(CNC(=O)CN2CCCN(Cc3ccc(F)cc3)S2(=O)=O)cc1, CCc1ccc(N2CCn3c2nc2c3c(=O)n(CCc3ccccc3)c(=O)n2C)cc1
